PMC4336329 (PLoS ONE, 2015)
Out of some 310,000 compounds screened, about 2,200 (0.71%) showed an effect of 50% or more. The effect is printed as a negative number. This is one part of the list.

molecular target: human ether-à-go-go-related gene (hERG) potassium channel (human, UniProt Q12809); experiment: primary screen, population patch clamp on CHO cells stably expressing hERG
Sequence (Q12809 whole entry, looked up): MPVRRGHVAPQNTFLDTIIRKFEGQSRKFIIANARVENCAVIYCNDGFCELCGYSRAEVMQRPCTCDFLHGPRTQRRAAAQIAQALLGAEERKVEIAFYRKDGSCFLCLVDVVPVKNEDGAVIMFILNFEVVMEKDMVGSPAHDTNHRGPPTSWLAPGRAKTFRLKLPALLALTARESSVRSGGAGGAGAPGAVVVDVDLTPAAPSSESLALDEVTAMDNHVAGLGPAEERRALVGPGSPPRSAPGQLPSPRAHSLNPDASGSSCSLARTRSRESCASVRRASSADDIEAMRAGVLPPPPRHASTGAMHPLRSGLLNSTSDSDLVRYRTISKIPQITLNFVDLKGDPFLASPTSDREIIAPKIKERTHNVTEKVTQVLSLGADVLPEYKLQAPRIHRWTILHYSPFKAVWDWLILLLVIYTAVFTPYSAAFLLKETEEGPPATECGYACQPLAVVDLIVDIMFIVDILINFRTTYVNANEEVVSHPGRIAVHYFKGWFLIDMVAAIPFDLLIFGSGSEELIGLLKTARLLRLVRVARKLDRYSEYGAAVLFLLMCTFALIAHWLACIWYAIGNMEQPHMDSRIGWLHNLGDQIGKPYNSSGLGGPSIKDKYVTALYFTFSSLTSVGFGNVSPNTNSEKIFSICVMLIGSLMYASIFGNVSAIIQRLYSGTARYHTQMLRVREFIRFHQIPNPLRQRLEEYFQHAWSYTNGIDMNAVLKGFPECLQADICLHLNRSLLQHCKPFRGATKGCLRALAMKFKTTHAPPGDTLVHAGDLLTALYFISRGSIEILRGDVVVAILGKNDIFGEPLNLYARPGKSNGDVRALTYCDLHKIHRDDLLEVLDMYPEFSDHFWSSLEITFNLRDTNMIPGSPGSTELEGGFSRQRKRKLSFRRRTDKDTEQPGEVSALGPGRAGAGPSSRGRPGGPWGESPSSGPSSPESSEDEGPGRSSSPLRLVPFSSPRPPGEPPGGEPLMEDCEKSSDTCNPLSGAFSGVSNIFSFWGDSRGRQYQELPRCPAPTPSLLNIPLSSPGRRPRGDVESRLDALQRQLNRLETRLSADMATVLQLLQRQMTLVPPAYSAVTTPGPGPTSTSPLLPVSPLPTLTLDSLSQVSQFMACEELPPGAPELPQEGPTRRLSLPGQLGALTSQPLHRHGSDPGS

| SMILES | hERG current change (%, negative = inhibition) at 1uM |
| --- | --- |
| O=S(=O)(NC1=NCCCCC1)c1ccc(Cl)cc1 | 6.2% |
| CC(NCc1ccc2c(c1)OCO2)c1ccccc1.Cl (stereo not shown) | 12.7% |
| CN1CC(C(=O)c2ccc(F)cc2)C(c2c(F)cccc2Cl)C1 (stereo not shown) | -25.1% |
| CC1=C(C(=O)O)N2C(=O)C(NC(=O)c3ccn(C)n3)C2SC1 (stereo not shown) | 10.2% |
| Cc1cccc(-n2c(C)cc(/C=N/O)c2C)c1 | -4.26% |
| CN(C(=O)COC(=O)c1ccc(Br)o1)c1c(N)n(Cc2ccccc2)c(=O)[nH]c1=O | 15.5% |
| CN(C)S(=O)(=O)N1CCN(CC(=O)Nc2cc(Cl)ccc2Cl)CC1 | -20.8% |
| O=C(c1cc(C(=O)N2CCCC2)cc([N+](=O)[O-])c1)N1CCCC1 | 1.45% |
| O=C(NCCN1C(=O)CSC1=O)C1CC(=O)N(c2ccccc2)C1 (stereo not shown) | 2.75% |
| NS(=O)(=O)c1ccc(NC(=S)NNC(=O)c2cccs2)cc1 | 7.69% |
| O=C(Nc1cccc(F)c1)/C(=C\c1ccco1)NC(=O)c1ccco1 | 24.2% |
| Cc1cc(C)n2nc(C(=O)OCC(=O)N3CC(C)CC(C)C3)nc2n1 (stereo not shown) | 16.6% |
| Cc1cccc(/N=C/c2c(C)[nH]n(-c3ccccc3)c2=O)n1 | 6.86% |
| COC(=O)c1cn(CC(=O)N2CCCCCC2)c2ccccc12 | 8.63% |
| Cc1cc(C)c2c(N)c(C(=O)NCc3ccco3)sc2n1 | 10.2% |
| COc1cccc(NC(=O)CN(C)C(=O)CCSc2ccc(C)cc2)c1 | 2.68% |
| CCOC(=O)Nc1ccccc1C(=O)Nc1cc(C)cc(C)c1 | 19.5% |
| COc1ccc(NC(=S)N2CCN(CCN3C(=O)c4cccc5cccc(c45)C3=O)CC2)cc1 | 2.95% |
| COc1ccc(-n2c(O)c(/C=N/NS(=O)(=O)c3cccc([N+](=O)[O-])c3)c3ccccc3c2=O)cc1OC | 3.15% |
| Cc1ccc(S(=O)(=O)NCCC(=O)Nc2ccc3c(c2)OCO3)cc1 | 7.95% |
| CC(C)OP(=O)(c1ccc(N(C)C)cc1)C(Nc1ccccc1)c1ccccc1 (stereo not shown) | 12% |
| Cc1cccc(C(=O)Nc2ccc3ccccc3c2)c1 | 15.7% |

| SMILES | hERG current change (%, negative = inhibition) at 1uM |
| --- | --- |
| COc1ccc(S(=O)(=O)N2CCCC(C(=O)NCc3ccc4c(c3)OCO4)C2)cc1 (stereo not shown) | 9.72% |
| CC(C)S(=O)(=O)C/C(N)=N/OS(=O)(=O)c1ccc(Cl)cc1 | 8.08% |
| Cc1ccc2c(Cl)cc(Cl)c(OCC(=O)NCCc3ccccn3)c2n1 | 5.98% |
| CCCN1CCN(C(=O)C2CCN(S(=O)(=O)c3ccc4c(c3)NC(=O)C(C)S4)CC2)CC1 (stereo not shown) | 23.9% |
| COc1ccccc1P(=O)(c1ccccc1)c1ccc([N+](=O)[O-])cc1 (stereo not shown) | -4.32% |
| Cc1ccc(NC(=O)CCC(=O)NNC(=O)/C=C/C(=O)O)c(C)c1 | 3.72% |
| O=c1[nH][nH]c(=O)c2cc(N3CCCC3)ccc12 | 3.68% |
| Cc1ccc(NC(=O)N2CCc3ccccc32)cc1C | 3.01% |
| COc1cccc(CN2CC(C(=O)NCCSc3nnnn3C)CCC2=O)c1 (stereo not shown) | 12.1% |
| Nc1c(S(=O)(=O)c2cccc(Cl)c2)c2nc3ccccc3nc2n1CCN1CCOCC1 | 2.5% |
| CCC(C)(C)c1nnc(NC(=O)CCC2CCCCC2)s1 | 10.1% |
| O=C(COC(=O)CCCOc1ccc(Cl)cc1Cl)Nc1cccc(Cl)c1 | 4.25% |
| N#Cc1cn(CCCOc2ccccc2)c2ccccc12 | 11.3% |
| CC(C)c1cc(C(=O)O)n(-c2ccccc2)n1 | 9.09% |
| COc1cccc(/C=N/n2c(COc3ccccc3)n[nH]c2=S)c1O | 11.5% |
| O=c1[nH]c(CCC2CCCC2)nc2ccccc12 | 4.67% |
| COc1ccc(S(=O)(=O)N(CC(=O)NCc2cccnc2)c2ccc(C)cc2)cc1OC | 10% |
| COC(=O)c1ccc(Nc2cc(C)nc3nc(C)nn23)cc1 | -8.75% |
| COc1ccccc1NC(=S)N(Cc1ccccc1)Cc1cccnc1 | 8.69% |
| Cc1cc([N+](=O)[O-])nn1CC(=O)N1CCN(Cc2ccccc2)CC1 | 1.28% |
| CCc1cc2c(=O)n3c(nc2s1)-c1[nH]c2ccc(OC)cc2c1CC3 | 17.9% |
| CSc1nsc(SC)c1C(=O)N1CCN(S(=O)(=O)c2ccc(C)cc2)C1C(C)C (stereo not shown) | 12.8% |

| SMILES | hERG current change (%, negative = inhibition) at 1uM |
| --- | --- |
| CCN(Cc1ccccc1)C(=O)Cn1c(=O)n(CCC(=O)N2CCCCC2)c(=O)c2sccc21 | 11.3% |
| CCOc1ccc(C(=O)Nc2cc(-c3nc4ccccc4[nH]3)ccc2Cl)cc1[N+](=O)[O-] | 2.58% |
| CCCN1CC(=O)N2Cc3[nH]c4ccccc4c3C[C@H]2C1=O | 13% |
| Cc1ccccc1-n1c(C)nnc1SCC(=O)NC1CCCc2ccccc21 (stereo not shown) | 7.63% |
| CCOC(=O)CNc1nc(Cl)nc(Nc2ccccc2)n1 | 27.5% |
| COc1ccc(OCC(=O)NCCNC(=O)c2cccnc2)cc1 | 22.9% |
| CCOC(=O)c1c(C)[nH]c(C(=O)N/N=C/c2cc([N+](=O)[O-])ccc2O)c1C | 23.1% |
| COc1ccc(-c2csc(NC(=O)c3ccccc3C(=O)O)n2)cc1 | 6.61% |
| Cc1cc2ccc(C)c(C)c2nc1SCC(=O)c1cccs1 | 2.07% |
| O=C1NC(=O)C(=Cc2coc3ccc(O)cc3c2=O)C(=O)N1 | 8.19% |
| CC(=O)c1ccc(N2CCN(C(=O)CCN3C(=S)NC(C)(C)CC3C)CC2)cc1 (stereo not shown) | 9.14% |
| CC(=O)Nc1cccc(NC(=O)c2cccc(OCc3ccccc3)c2)c1 | 13.8% |
| COc1ccccc1OCCNC(=O)C1CC(=O)N(c2ccc3c(c2)OCCO3)C1 (stereo not shown) | 9.49% |
| Cc1c(C(=O)OCC(C)(C)CN(C)C)oc2ccccc12.Cl | -28.6% |
| Nc1nc(-c2ccccc2Br)cs1 | 10.5% |
| Cc1cccc(C)c1NC(=O)Cn1c(=O)n(CCCC(=O)NCc2ccco2)c(=O)c2sccc21 | 1.63% |
| COc1cc(C(=O)OCC(=O)Nc2cc(-c3cc(C)c(C)cc3C)nn2-c2ccccc2)cc(OC)c1OC | 16.1% |
| CCc1nnc2sc(-c3ccc(NC(=O)c4ccc5c(c4)OCCO5)cc3)nn12 | 22.1% |
| O=C1C=C(c2ccc(Cl)c(C(F)(F)F)c2)C[C@@H](c2ccc3c(c2)OCO3)C1 | 12.8% |
| COc1ccc(CC(=O)NC2CCS(=O)(=O)C2)cc1 (stereo not shown) | 4.38% |
| Cc1cc(NC(=O)CCC(=O)N(Cc2ccco2)C(C(=O)NCC2CCCO2)c2ccncc2)no1 (stereo not shown) | 10.2% |
| O=C(Nc1nc2ccccc2s1)C1c2ccccc2Oc2ccccc21 | 2.78% |

| SMILES | hERG current change (%, negative = inhibition) at 1uM |
| --- | --- |
| CSc1nc2nc3c(c(=O)n2[nH]1)CCC3 | 1.88% |
| Cc1ccc(/C=N/n2cnc3sc(-c4ccccc4)cc3c2=O)o1 | 6.12% |
| COC(=O)c1ccc(/C=N/NC(=O)C(=O)NCc2ccccc2)cc1 | 7.96% |
| NS(=O)(=O)c1ccc(NC(=S)Nc2ccc(F)c(F)c2)cc1 | 11.3% |
| Fc1ccccc1/C=N/n1c(C2CCCCC2)n[nH]c1=S | 10.4% |
| C[C@H](NC(=O)C1CC(=O)N(c2ccc3c(c2)OCO3)C1)C(=O)NCc1ccco1 (stereo partly shown) | 7.24% |
| NNC(=O)c1cccc(O)c1 | 13% |
| C[C@@]12CC(=O)NC1N(C(=O)c1cccc(C(F)(F)F)c1)C(c1ccccc1OC(=O)c1cccc(C(F)(F)F)c1)C2 (stereo partly shown) | 12.2% |
| Cc1ccc(S(=O)(=O)NN=C2C3CC4CC(C3)CC2C4)cc1[N+](=O)[O-] | 13% |
| COc1ccc(NC(=O)c2ccccc2NC(=O)c2ccco2)cc1 | 13.6% |
| COc1ccccc1-n1c(C)nc2cc(C(=O)NCc3ccc4c(c3)OCO4)ccc21 | 13.8% |
| CNC(=S)NCCN1CCOCC1 | 0.884% |
| O=C1NC(=O)C(=Cc2cccc(OCCOc3ccccc3)c2)C(=O)N1 | 1.97% |
| CCCc1nc2ccccc2c(C(=O)OCC(=O)NCc2ccco2)c1CC | 3.11% |
| Cc1occc1C(=O)N1CCCC(Nc2ccc(F)cc2)C1 (stereo not shown) | 12.6% |
| Cc1cc(C)c(C)c(SCC(=O)Nc2oc(C)c3c(C)n[nH]c(=O)c23)c1C | 8.14% |
| O=C(CCC(=O)N1CCCC1)N1CCCC1 | 34.3% |
| COC(=O)c1ccc(NC(=O)CN(Cc2ccc(Cl)cc2)S(C)(=O)=O)cc1 | 1.88% |
| COc1ccc(N(C(=O)C2CSC(=O)C2)C(C(=O)NC(C)(C)C)c2ccncc2)cc1 (stereo not shown) | 10% |
| COc1ccc(CC(=O)Nc2cc(Cl)ccc2C(=O)O)cc1 | 9.96% |
| Cc1ccc(C(=O)N2CCN(c3nc4ccccc4n3C)CC2)cc1 | -34.6% |
| CN(CCCNC(=O)C1CCCN(S(=O)(=O)c2cnc[nH]2)C1)c1ccccc1 (stereo not shown) | 12.8% |
